Experiment [1] concerns the target his-labeled human IL-13 (immunogen A) (human) (UniProt P35225). As to the kind of experiment: FACS blocking, biotin-IL-13 on IL-13Ra2 HEK293 cells; antibody at 0.01 nM.
The target is the same in experiment [2]. Nature of the experiment: cell-based or functional assay.
The target is the same in experiment [3]. As to the kind of experiment: FACS blocking, biotin-IL-13 on IL-13Ra1/IL-4Ra HEK293 cells; antibody at 1.33 nM.
The target is the same in experiment [4]. Nature of the experiment: FACS blocking, biotin-IL-13 on IL-13Ra2 HEK293 cells; antibody at 0.002 nM.
Experiment [5] shares this target. As to the kind of experiment: FACS blocking, biotin-IL-13 on IL-13Ra1/IL-4Ra HEK293 cells; antibody at 166.67 nM.
The target is the same in experiment [6]. Nature of the experiment: ELISA, biotin-immunogen A; antibody at 0.004 nM. Background: ELISA stands for enzyme-linked immunosorbent assay.
For experiment [7] the target is unchanged. As to the kind of experiment: FACS blocking, biotin-IL-13 on IL-13Ra2 HEK293 cells; antibody at 0.27 nM.
Experiment [8] has the same target. Nature of the experiment: FACS blocking, biotin-IL-13 on IL-13Ra2 HEK293 cells; antibody at 6.67 nM.
Experiment [9] shares this target. Nature of the experiment: FACS blocking, biotin-IL-13 on IL-13Ra1/IL-4Ra HEK293 cells; antibody at 0.27 nM.
Experiment [10] has the same target. As to the kind of experiment: ELISA, biotin-immunogen A; antibody at 0.53 nM.
Experiment [11] shares this target. As to the kind of experiment: ELISA: biotin-labeled immunogen A on streptavidin plate, antibody titrated, HRP secondary antibody, OD450.
The target is the same in experiment [12]. Nature of the experiment: ELISA, biotin-immunogen A; antibody at 333 nM.
The target is the same in experiment [13]. Nature of the experiment: ELISA, biotin-immunogen A; antibody at 2.7 nM.
For experiment [14] the target is unchanged. Nature of the experiment: FACS blocking, biotin-IL-13 on IL-13Ra1/IL-4Ra HEK293 cells; antibody at 0.05 nM.
The target is the same in experiment [15]. Nature of the experiment: FACS blocking, biotin-IL-13 on IL-13Ra2 HEK293 cells; antibody at 166.67 nM.
The target is the same in experiment [16]. As to the kind of experiment: FACS blocking, biotin-IL-13 on IL-13Ra2 HEK293 cells; antibody at 33.33 nM.
Experiment [17] shares this target. Nature of the experiment: FACS blocking, biotin-IL-13 on IL-13Ra1/IL-4Ra HEK293 cells; antibody at 6.67 nM.
For experiment [18] the target is unchanged. As to the kind of experiment: FACS blocking, biotin-IL-13 on IL-13Ra2 HEK293 cells; antibody at 1.33 nM.
Experiment [19] has the same target. Nature of the experiment: ELISA, biotin-immunogen A; antibody at 0.021 nM.
The target is the same in experiment [20]. As to the kind of experiment: ELISA, biotin-immunogen A; antibody at 0.11 nM.
The target is the same in experiment [21]. As to the kind of experiment: ELISA, biotin-immunogen A; antibody at 13.3 nM.
Experiment [22] shares this target. As to the kind of experiment: FACS blocking, biotin-IL-13 on IL-13Ra1/IL-4Ra HEK293 cells; antibody at 0.01 nM.
Experiment [23] shares this target. As to the kind of experiment: FACS blocking, biotin-IL-13 on IL-13Ra2 HEK293 cells; antibody at 0.05 nM.
Experiment [24] has the same target. As to the kind of experiment: FACS blocking, biotin-IL-13 on IL-13Ra1/IL-4Ra HEK293 cells; antibody at 33.33 nM.
The target is the same in experiment [25]. As to the kind of experiment: FACS blocking, biotin-IL-13 on IL-13Ra1/IL-4Ra HEK293 cells; antibody at 0.002 nM.
For experiment [26] the target is unchanged. Nature of the experiment: ELISA, biotin-immunogen A; antibody at 67 nM.
For experiment [27] the target is unchanged. Nature of the experiment: FACS inhibition of IL-13 on hIL-13Ra2 293 cells; phage supernatant 1:100.
The target is the same in experiment [28]. Nature of the experiment: FACS inhibition of IL-13 on hIL-13Ra2 293 cells; phage supernatant 1:10.
For experiment [29] the target is unchanged. Nature of the experiment: FACS inhibition of IL-13 on hIL-13Ra1/hIL-4Ra 293 cells; phage supernatant 1:5.
Experiment [30] has the same target. Nature of the experiment: FACS inhibition of IL-13 on hIL-13Ra1/hIL-4Ra 293 cells; phage supernatant 1:25.
For experiment [31] the target is unchanged. Nature of the experiment: FACS inhibition of IL-13 on hIL-13Ra1/hIL-4Ra 293 cells; phage supernatant 1:1.

B1: hP4_4H12 (fully human IL-13 antibody) (antibody, V domains shown)
VH: EVQLVETGGGVVQPGRSLRLSCAASGFTFSSYAMHWVRQAPGKGLEWVAVISYDGSNKYYADSVKGRFTISRDNSKNTLYLQMNSLRAEDTAVYYCARDPVGYCSGGSCYYYGMDVWGQGTTVTVSS
VL: EIVMTQSPATLSLSPGERATLS[about 80 residues omitted here]TFGLGTKVVIK
In the case of B1, the mean fluorescence intensity in [1] stood at 48.4; in experiment [3], 47.8; in experiment [4] it was 51.2; in [5] it was 19.6; in experiment [7] it was 56.8; in [8], 75.5. In addition, the mean fluorescence intensity came to 55.4 in [9]; 58.4 in experiment [14]; 49.7 in experiment [15]; 59.1 in experiment [16]; 32.6 in experiment [17]; 72.2 in experiment [18]. The mean fluorescence intensity in experiment [22] is 59; in experiment [23] it was 51.8; in [24], 21.9; in experiment [25] it was 62.1. In addition, the TARC (pg/mL), A549 cells + IL-13 + TNFα; antibody at 0.004 nM in [2] stood at 2460 pg/mL. For the same molecule, the TARC (pg/mL), A549 cells + IL-13 + TNFα; antibody at 0.021 nM in experiment [2] was found to be 2760 pg/mL. The TARC (pg/mL), A549 cells + IL-13 + TNFα; antibody at 0.11 nM in experiment [2] was determined as 2760 pg/mL. Further, the TARC (pg/mL), A549 cells + IL-13 + TNFα; antibody at 0.5 nM in experiment [2] stood at 2590 pg/mL. In [2], the TARC (pg/mL), A549 cells + IL-13 + TNFα; antibody at 2.7 nM came out at 2530 pg/mL. The TARC (pg/mL), A549 cells + IL-13 + TNFα; antibody at 13.3 nM in experiment [2] came to 1350 pg/mL. Besides, the TARC (pg/mL), A549 cells + IL-13 + TNFα; antibody at 66.7 nM in experiment [2] was determined as 339 pg/mL. Also, the OD450 nm is 0.09 in experiment [6]; 2.1 in experiment [10]; 3.57 in experiment [12]; 3.09 in experiment [13]; 0.2 in experiment [19]; 0.69 in [20]. Further, the OD450 nm in experiment [21] is 3.61; in experiment [26], 3.55. This molecule also gave an EC50 (read off the curve) in experiment [11] of 0.4 nM.

B2: P4_4H12 (phage clone, lead antibody from the phage ScFv antibody library) (scFv, V domains shown)
VH: B1 VH
VL: EIVMTQSPATLSLSPGERATLS[about 80 residues omitted here]TFGLGTKVVIK
B2: the inhibition rate was -5.6% in experiment [27]; -6.9% in experiment [28]; 71.7% in experiment [29]; 30.8% in experiment [30]; 88.7% in experiment [31].

Usually EC50 (read off the curve) stands for the concentration at which the effect is half-maximal. High values mean lower potency in that assay, low ones higher potency in that assay.

Values taken from US20190309059A1.
